Reference: PubChem BioAssay AID1745853 (National Center for Advancing Translational Sciences (NCATS), 2022)
The list shows a part of the results. Shown are side measurements of this screen, not its main read-out; they come without a call.

Assays:
Assay in all cases: Primary Screen for Target Class Profiling of Small Molecule Inhibitors of Methyltransferases
[1] = target: Glycine N-methyltransferase (Homo sapiens) (UniProt Q14749); settings: purified enzyme, MTase-Glo SAH luminescence; measured here: GNMT inhibition; at 40 µM; stronger effect = lower value
Outline: (§1)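 Each enzyme was assayed with SAM and its substrate. SAH formation detected by MTase-Glo luminescence; single-point 40 uM screen[…].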

[2] = target: Guanidinoacetate N-methyltransferase (Homo sapiens) (UniProt Q14353); settings: purified enzyme, MTase-Glo SAH luminescence; measured here: GAMT inhibition; at 40 µM; stronger effect = lower value
Outline: as §1

[3] = target: Histamine N-methyltransferase (Homo sapiens) (UniProt P50135); settings: purified enzyme, MTase-Glo SAH luminescence; measured here: HNMT inhibition; at 40 µM; stronger effect = lower value
Outline: as §1

[4] = target: Nicotinamide N-methyltransferase (Homo sapiens) (UniProt P40261); settings: purified enzyme, MTase-Glo SAH luminescence; measured here: NNMT inhibition; at 40 µM; stronger effect = lower value
Outline: as §1

[5] = target: Phenylethanolamine N-methyltransferase (Homo sapiens) (UniProt P11086); settings: purified enzyme, MTase-Glo SAH luminescence; measured here: PNMT inhibition; at 40 µM; stronger effect = lower value
Outline: as §1
On the % scale 0 is the no-effect control and ±100 the full control effect.

| SMILES | activity change, negative = inhibition [1] [%] | activity change, negative = inhibition [2] [%] | activity change, negative = inhibition [3] [%] | activity change, negative = inhibition [4] [%] | activity change, negative = inhibition [5] [%] |
| --- | --- | --- | --- | --- | --- |
| CC(C)NC(=O)CN1C(=O)NC(c2ccc(Cl)cc2)C2=C1COC2=O (configuration not stated) | -0.93 | 0.587 | 0.81 | 4.3 | 2.36 |
| O=C(O)CC1NCCNC1=O (configuration not stated) | -1.12 | -2.81 | 1.45 | -7.69 | -0.311 |
| COc1ccc(Cl)cc1NC(=O)N1CCn2cccc2C1Cc1ccccc1 (configuration not stated) | -5.87 | 0 | 2.16 | -4.92 | -3.29 |
| CNC(=O)c1ccc(NC(=O)c2nc(C(O)c3ccccc3F)oc2C)cc1 (configuration not stated) | -9.91 | -6.21 | -1.98 | -5.59 | -0.1 |
| CC(=O)Oc1cc(C(C)C)c(OCCN(C)C)cc1C | 4.87 | 12.6 | 8.51 | -0.987 | 9.22 |
| CN1[C@@H](CCC(=O)N2CCN(c3ccccn3)CC2)CNC(=O)[C@@H]2[C@H]1CCN2Cc1ncc[nH]1 | -1.63 | -0.883 | -1.8 | 1.34 | 1.81 |
| Cc1nc(CN2CCOc3cc([S+](=O)([O-])N(C)C)ccc3C2)cs1 | -1.68 | -3.93 | -2.54 | 0.753 | -3.57 |
| COc1ccc(-n2ccnc2-c2cc3n(n2)CCCNC3)c(OC)c1 | -2.07 | -2.73 | 0.445 | -7.16 | 8.58 |
| O=c1cc(-c2ccncc2)nc(-c2ccc(CN3CC[C@@H](O)C3)cc2)[nH]1 | -11.3 | -8.19 | -7.38 | -10.9 | -6.08 |
| O=C(COc1cc2oc(=O)cc(-c3ccccc3)c2cc1Cl)OCc1ccccc1 | -6.59 | 3.01 | -3.61 | -4.94 | -4.92 |
| CNC(=O)[C@@H]1CN(C(=O)c2cc3cc(OC)ccc3[nH]2)C[C@H]1COC | -2.96 | -4.27 | -1.18 | -11.2 | -19.8 |
| COc1ccc2c(c1)OC[C@]1(O)c3cc4c(cc3O[C@H]21)OCO4 | -4.24 | -2.43 | 7.34 | -20.9 | 1.64 |
| O=C(NC[C@H]1O[C@@H](CO)[C@@H](O)[C@H]1N1CCCC1)c1ccc(F)c(Cl)c1 | -1.83 | -0.845 | 0.635 | -7.11 | -3.67 |
| CCC(C)NC(=O)c1ccc2c(=O)n(CCC(C)C)c3nn(Cc4cccc(Cl)c4)c(=O)n3c2c1 (configuration not stated) | -1.49 | 1.19 | 2.2 | 2.14 | -2.89 |
| CC(C)CC1(C(=O)OCc2ccc(O[C@@H]3O[C@H](CO)[C@@H](O)[C@H](O)[C@H]3O)cc2)CC(=O)OC(C(=O)O)CC(=O)OCC2OC(O1)C(OC(=O)/C=C/c1ccc(O)cc1)C(O)C2O (some centres not stated) | -0.333 | 2.51 | 4.51 | -9.09 | 6.82 |
| C=C1CC[C@@H]2[C@@](C)(CO[C@@H]3O[C@H](CO)[C@@H](O)[C@H](O)[C@H]3O)[C@H](O)CC[C@@]2(C)[C@@H]1CC/C(C)=C/CO[C@@H]1O[C@H](CO)[C@@H](O)[C@H](O)[C@H]1O | -3.15 | -11.2 | 1.48 | -20 | -2.95 |
| Cc1ccc(F)cc1C(=O)Nc1ccc(C(=O)N2Cc3cccn3Cc3ccccc32)c(Cl)c1 | -7.19 | -17.9 | -4.03 | -39.6 | -12.7 |
| Cc1ccc(-c2nnn3c2nc(NC2CCCC2)c2ccccc23)cc1 | 0.836 | 0.132 | 4.52 | 5.15 | 0.363 |
| COc1ccccc1CN1CC(c2noc(CCC(=O)c3ccc(C)cc3)n2)CC1=O (configuration not stated) | -3.88 | 4.4 | 0.086 | -11.2 | -3.26 |
| CC(=O)N1CCn2c3c(c4cc(C)ccc42)CCCC31 (configuration not stated) | 2.29 | 1.73 | 0.879 | -2.63 | -0.354 |

| SMILES | activity change, negative = inhibition [1] [%] | activity change, negative = inhibition [2] [%] | activity change, negative = inhibition [3] [%] | activity change, negative = inhibition [4] [%] | activity change, negative = inhibition [5] [%] |
| --- | --- | --- | --- | --- | --- |
| O=C(NCCCn1cccn1)c1ccccc1OC1CCN(Cc2ccccn2)CC1 | -0.364 | 0.766 | -0.775 | 4.95 | 6.6 |
| CN(C)C/C=C/C(=O)Nc1cc2c(Nc3ccc(F)c(Cl)c3)ncnc2cc1OC1CCOC1 (configuration not stated) | -68.7 | – | -69.3 | – | – |
| O=c1c2ccccc2n2c(=O)n(Cc3c(F)cccc3Cl)nc2n1Cc1ccccc1 | 7.53 | 1.25 | 9.39 | 10.5 | 9.23 |
| Cc1ccc(Cn2c(=O)c3ccc(C(=O)NC4CCCCC4)cc3n3c(=O)[nH]nc23)cc1 | -2.95 | 1.17 | 3.76 | -3.68 | -5.86 |
| O=C(NCCc1ccccc1)c1ccc(CN2C(=O)CCn3nc(-c4ccccc4)cc32)cc1 | -5.26 | 2.89 | 2.03 | -31.3 | -0.191 |
| Cc1cccc(CNC(=O)C2(C)Cn3cnc(C(=O)N4CCOCC4)c3C(=O)N2C2CC2)c1 (configuration not stated) | 3.15 | 1.61 | 14.7 | 5.13 | 11.8 |
| NC(=O)Cn1ccn2nc3c(c2c1=O)CCCC3 | -2.66 | -2.4 | 0.071 | -0.914 | -3.28 |
| CN(Cc1ccccc1)Cc1cc(C[C@@H]2C[C@H](NC(=O)C3CCC3)C2(C)C)no1 | -2.94 | 4.45 | 0.346 | -4.54 | 13.7 |
| C/C=C(/C)C(=O)OC1C2OC2C2(CO2)C2C3OC(=O)C(C)C3CCC12C (configuration not stated) | 4.24 | 2.84 | 8.58 | -9.99 | 0.478 |
| CC(C)NC(=O)NC[C@H]1OC[C@@H](NCc2cnc[nH]2)[C@@H]1O | -4.74 | -1.96 | -0.103 | -4.17 | 1.53 |
| O=C(c1ccccn1)N1CC(CO)C2(CCNCC2)C1 (configuration not stated) | -2.85 | -3.75 | -1.02 | -0.673 | -4.51 |
| Cc1ccc(Cn2c(=O)c3ccccc3n3c(CCC(=O)N4CCN(c5cccc(Cl)c5)CC4)nnc23)cc1 | -4.05 | 4.34 | 6.03 | 2.2 | 1.7 |
| Cc1ccc(NC(=O)Cn2nc3n(CC(C)C)c(=O)c4ccccc4n3c2=O)cc1C | 2.34 | 0 | 5.55 | -1.74 | 1.5 |
| COC(=O)c1ncn2c1C(=O)N(Cc1ccccc1C)C(C)(C(=O)NC1CCCCC1)C2 (configuration not stated) | 6.79 | 0 | 7.98 | 9.8 | 4.52 |
| COc1ccc(OC)c(N2C(=O)c3cc4ccccc4n3CC2(C)C(=O)NC2CCCC2)c1 (configuration not stated) | 0.404 | 4.95 | 1.73 | 1.36 | 1.87 |
| CCCn1c(=O)c2ccc(C(=O)NC3CCCCC3)cc2n2c(=O)n(Cc3ccccc3F)nc12 | 4.79 | 0 | 8.1 | 3.4 | 6.03 |
| CC1(C(=O)NC2CCCCC2)Cn2c(cc3ccccc32)C(=O)N1Cc1cccc(Cl)c1 (configuration not stated) | -7.34 | -0.362 | -6.55 | -6.17 | -5.7 |
| Cc1ccc(OCC(=O)N2CCC3(CC2)N=C(c2ccc(C)cc2)NO3)cc1 | -5.96 | -1.57 | -2.98 | -7.03 | -3.42 |
| COC1=CC(=O)O[C@@H](/C=C/c2ccccc2)[C@@H]1O | -0.401 | 2.27 | 8.28 | -7.71 | -2.4 |
| CC(=O)N1CCC(N[C@@H]2CO[C@H](CNS(=O)(=O)c3ccccc3)[C@H]2O)CC1 | -2.62 | -1.64 | 0.192 | -2.32 | 5.03 |

| SMILES | activity change, negative = inhibition [1] [%] | activity change, negative = inhibition [2] [%] | activity change, negative = inhibition [3] [%] | activity change, negative = inhibition [4] [%] | activity change, negative = inhibition [5] [%] |
| --- | --- | --- | --- | --- | --- |
| C[C@@H]1O[C@@H](O[C@H]2[C@H](OC(C#N)c3ccc(O)cc3)O[C@H](CO)[C@@H](O)[C@@H]2O)[C@H](O)[C@H](O)[C@H]1O (some centres not stated) | 0 | 6.03 | 8.39 | -4.47 | 6.26 |
| CCOc1ccccc1CNC(=O)c1cc2n(n1)CC(C)(C(=O)NC1CCCC1)N(CC)C2=O (configuration not stated) | -4.65 | 0 | -2.58 | 3.35 | 4.31 |
| Nc1nc(Cl)nc2c1ncn2C1OC(CO)C(O)C1F (configuration not stated) | -9.82 | -19.8 | -9.65 | -25.4 | -16.3 |
| Cc1ccc(C(=O)Cn2nc3n(CC(C)C)c(=O)c4ccc(C(=O)NC5CCCC5)cc4n3c2=O)cc1 | 2.63 | 0.816 | 5.51 | 1.79 | 3.25 |
| Cc1ccc(NS(=O)(=O)c2cc3[nH]c(=O)[nH]c3cc2C)cc1F | 11.7 | 0 | 13 | -3.74 | -12.9 |
| O=C(CCSCc1ccco1)NNC(=O)N1Cc2ccccc2Oc2ccc(Cl)cc21 | -11.9 | 3.16 | -0.773 | -8.9 | 3.96 |
| O=C1CN(Cc2cccc(C(F)(F)F)c2)S(=O)(=O)c2ccccc2N1Cc1ccc(Cl)cc1 | -0.461 | 4.76 | -5.37 | -5.33 | -5.35 |
| CC(C)NC(=O)CCc1nnc2n(Cc3ccc(Cl)cc3)c(=O)c3ccccc3n12 | -1.49 | 0 | 7.24 | 8.71 | -1.85 |
| Cc1cc(C)cc(NC(=O)Cn2nc3n(CC(C)C)c(=O)c4ccc(C(=O)NC(C)C)cc4n3c2=O)c1 | -0.48 | 0.473 | -0.894 | 12.8 | 3.15 |
| CC(C)Cn1c(=O)c2ccccc2n2c(=O)n(CC(=O)Nc3ccc(Cl)cc3)nc12 | -2.88 | 2.67 | -2.88 | -8.85 | -5.6 |
| C/C(=C/CCC(CO)C1CCC2(C)C3CCC4C(C)(C)C(OC5OC(CO)C(O)C(O)C5O)CC(O)C45CC35CCC12C)COC1OC(CO)C(O)C(O)C1O (configuration not stated) | 0 | 10.9 | 0.938 | -4.98 | 6.4 |
| CC1=C(/C=C/C(C)=C/C=C/C(C)=C/C(=O)Nc2ccc(O)cc2)C(C)(C)CCC1 | -6.33 | 4.16 | -3.3 | -7.8 | 6.78 |
| Cc1nnc2n1CCC(N(C)C(=O)NC1CCCC1)CC2 (configuration not stated) | -1.79 | 0.285 | -0.213 | -2.46 | 0.696 |
| COc1cccc(CNC(=O)C(C)n2ccc3cc(S(=O)(=O)N4CCCCC4)ccc32)c1 (configuration not stated) | -0.2 | 5.65 | 1.99 | -1.18 | -1.05 |
| CCOC(=O)c1cc2n(n1)CC(C)(C(=O)NC1CCCCCC1)N(c1cc(OC)cc(OC)c1)C2=O (configuration not stated) | -0.807 | 2.08 | -7.54 | -0.843 | -1.34 |
| COc1ccc(S(=O)(=O)NCc2nc(-c3ccc(OC)c(OC)c3)no2)cc1 | -8.45 | 0.636 | -7.71 | -8.5 | -7.77 |
| CCCn1c(=O)c2ccc(C(=O)NCC(C)C)cc2n2c(=O)n(CC(=O)NC3CCCC3)nc12 | 4.83 | 0 | 10.4 | 0.598 | 0.737 |
| CC(=O)OC1CCC2(C)C(CCC3(C)C2CC=C2C4C(C)C(C)CCC4(C)CCC23C)C1(C)C(=O)O (configuration not stated) | 1.21 | 7.26 | 8.58 | -8.04 | 5.04 |
